# Measurements as given in PubChem BioAssay AID2451 (National Center for Advancing Translational Sciences (NCATS), 2010).
# “And” between values parts separate entries of the source, which are not always exact repeats. Equal values may be shown once. Out of some 290,000 compounds screened, about 2,100 (0.72%) were called active. This list was built around the results that the source calls inconclusive (neither active nor inactive); the mix of calls is not that of the screen. The call rests on the fitted dose curve; in most records, active means well fitted inhibition curve with a large enough effect; inconclusive means small, poorly fitted or top-dose-only effect, or effect the other way; inactive means flat fitted curve, though single readings scatter. Potencies beside an inconclusive call are fits to weak or partial responses and may not hold up.
# Target: Fructose-bisphosphate aldolase (Giardia intestinalis (strain ATCC 50803 / WB clone C6)) (UniProt A8B2U2)
# Experiment: qHTS Assay for Inhibitors of Fructose-1,6-bisphosphate Aldolase from Giardia Lamblia; further: nearly all actives have a fitted effect of over 55% in size
# Conditions: purified Giardia FBPA; activity, negative = inhibition: at 59.6 µM (top of the series) unless noted
# In short: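 Giardia FBPA (40 nM reagent) was preincubated 10 min at RT with compound (up to 57.5 uM final), then substrate plus GAPDH/TPI/NAD/arsenate coupling system with diaphorase/resazurin was added; resorufin fluorescence (525/598 nm) was read after 20 min.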
# On the % scale 0 is the no-effect control and ±100 the full control effect; potency means the concentration at half of the fitted maximal effect; tags describe the fitted curve by direction and shape.
# Chain of UniProt A8B2U2 (A8B2U2 whole entry, looked up): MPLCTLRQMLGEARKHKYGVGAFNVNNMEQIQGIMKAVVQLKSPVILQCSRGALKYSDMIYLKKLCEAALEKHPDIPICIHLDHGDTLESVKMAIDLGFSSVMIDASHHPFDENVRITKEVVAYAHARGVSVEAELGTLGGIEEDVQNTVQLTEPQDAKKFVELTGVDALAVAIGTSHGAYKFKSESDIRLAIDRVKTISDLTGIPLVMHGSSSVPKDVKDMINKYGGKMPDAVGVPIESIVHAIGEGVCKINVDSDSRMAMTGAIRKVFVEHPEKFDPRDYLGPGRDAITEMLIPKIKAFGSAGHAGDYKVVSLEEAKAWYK
SMILES,"activity, negative = inhibition",Potency
O=C(NC1Cc2ccccc2C1)c1cc(COc2ccc(F)cc2Cl)on1,inactive: 8.05%,
Cn1c(SCC(=O)Nc2ccc3c(c2)OCCO3)nnc1C1CC1,inactive: 4.64%,
COc1ccc(C2(C(=O)NCC3CCCO3)CCOCC2)cc1 (stereo not given),,"inconclusive: 44.6 µM [inhibitor, single point]"
N#CC1=C2SCN(c3ccccc3)CN2C(=O)CC1c1ccccc1Cl (stereo not given),,"inconclusive: 1.77 µM [inhibitor, partial curve]"
N#Cc1c(SCC(=O)Nc2nncs2)sc2c(O)cc(=O)[nH]c12,,"inconclusive: 14.1 µM [inhibitor, partial curve]"
Cn1c(=O)c2c(ncn2CCO)n(C)c1=O,,inactive
Cc1cc(C)nc(NS(=O)(=O)c2ccc(N=NN(C)C)cc2)n1,inactive: -10.5%,
COC(=O)CCc1c(C)c(C(=O)c2ccc(F)cc2)c2ccccn12,,"inconclusive: 15.8 µM [inhibitor, single point]"
CC1Sc2ccc(S(=O)(=O)CCC(=O)NC(C)c3ccccc3)cc2NC1=O (stereo not given),inactive: -8.89%,
O=C(O)CSc1nnc2c(n1)[nH]c1ccccc12,inactive: -0.746%,
Oc1ccc(C(=S)N2CCN(Cc3ccccc3)CC2)cc1,,active: 17.7 µM
O=C(CSc1nnnn1-c1ccc(F)cc1)c1ccc(O)c(O)c1,,"inconclusive: 31.5 µM [inhibitor, single point]"
COc1ccc(-c2csc(N(CCCN(C)C)C(=O)c3cc(OC)c(OC)c(OC)c3)n2)cc1,,"inconclusive: 31.6 µM [inhibitor, single point]"
N#CC1=C2SCCN2C(=O)C(C#N)C12CCCCC2 (stereo not given),inactive: -6.76%,
COC(=O)c1ccc(Cn2cnc3cnccc32)cc1,,"inconclusive: 35.5 µM [inhibitor, single point]"
c1ccc(COc2ccccc2CNC23CC4CC(CC(C4)C2)C3)cc1,inactive: 3.34%,
CCCN(CCC)Cc1c(C(=O)N/N=C/C(C)=C\c2ccco2)nnn1-c1nonc1N,,"inconclusive: 22.4 µM [inhibitor, partial curve]"
CCC(=O)NC1=C(NC(C)c2ccccc2)C(=O)c2ccccc2C1=O (stereo not given),,"inconclusive: 1.99 µM [inhibitor, full curve]"
CCC(=O)N1N=C(c2c(O)n(C)c(=O)n(C)c2=O)CC1c1ccccc1 (stereo not given),,"inconclusive: 35.4 µM [inhibitor, single point]"
Cc1ccccc1OCC(=O)NNC(=S)NC(=O)c1ccccc1[N+](=O)[O-],,"inconclusive: 17.7 µM [activator, partial curve]"
C/C=C/c1ccc(OCCCCN2CCN(CC)CC2)c(OC)c1,,"inconclusive: 17.7 µM [inhibitor, partial curve]"
c1ccc(-c2cn3nc4c(nc3n2)CCCC4)cc1,,"inconclusive: 15.8 µM [inhibitor, single point]"
Cc1ccc(CNc2nc(C)nc3sc4c(c23)CCC4)cc1,inactive: -0.285%,
O=C(O)c1ncn(Cc2ccc(Br)cc2)c1C(=O)O,,active: 14.1 µM
CN(C)c1ccc(-c2cncnc2-n2ccnc2)cc1,,"inconclusive: 17.7 µM [inhibitor, partial curve, poor fit]"

SMILES,"activity, negative = inhibition",Potency
Cc1ccc(CSC2=Nc3ccccc3C3=NC(CC(=O)NCc4ccco4)C(=O)N23)cc1 (stereo not given),,"inconclusive: 25.1 µM [inhibitor, single point]"
Cc1ccc(NC(=S)NNS(=O)(=O)c2ccc3ccccc3c2)cc1Cl,,"inconclusive: 4.46 µM [inhibitor, partial curve]"
COc1ccc(OC)c(N/C(N)=N/c2nc(C)cc(C)n2)c1,,"inconclusive: 39.8 µM [inhibitor, single point]"
OCC1O[C@H](O[C@H]2C(O)C(O)C(O)O[C@@H]2CO)C(O)C(O)C1O (stereo not given in full),inactive: 1.44%,
Cn1nnnc1SCC(=O)N1c2ccccc2Sc2ccccc21,inactive: 3.85%,
COc1ccc2c(c1)C1(Nc3ccccc3-c3nc4ccccc4n31)C(=O)N2 (stereo not given),inactive: 2.11%,
O=C(O)CCC(=O)Nc1nc2nccc(-c3ccccc3)n2n1,,"inconclusive: 17.7 µM [inhibitor, partial curve]"
CCC(Oc1ccc(F)cc1)C(=O)N1CCCCCCC1 (stereo not given),inactive: -0.474%,
CC(=O)OC1N=C(c2ccc(Cl)cc2)c2cc(Br)ccc2NC1=O (stereo not given),,"inconclusive: 17.7 µM [inhibitor, single point]"
CN1C2C=C3C(C#N)=C(N)C(C#N)(C#N)[C@@H](c4cccc(F)c4)[C@@H]3C1CC2 (stereo not given in full),,"inconclusive: 15.8 µM [inhibitor, partial curve]"
COc1ccc(C2CC(C(F)(F)F)n3nc(C(=O)N(C)Cc4cn(C)nc4C)c(Cl)c3N2)cc1 (stereo not given),inactive: -5.17%,
O=C(Nc1ccc(F)c(F)c1)C1CCN(S(=O)(=O)c2cccc3nonc23)CC1,inactive: 2.19%,
Cc1c(C=O)c2ccccn2c1C(=O)c1cccs1,,"inconclusive: 15.8 µM [inhibitor, single point]"
CC(C)(C)c1cc(OC(=O)c2ccccc2F)ccc1O,,"inconclusive: 15.8 µM [inhibitor, single point]"
COc1ccc(-c2nc3c(c4c2C[C@H](c2ccccc2)OC4)CN(S(=O)(=O)c2ccc(C#N)cc2)CC3)c(C)c1,inactive: 2.8% [at 12.9 µM],
Cc1cc(C)cc(NC(=S)Nc2cccc3cnccc23)c1,,"inconclusive: 3.54 µM [inhibitor, full curve]"
COc1ccc(S(=O)(=O)Cc2ccc(C(=O)N3CCCC3)o2)cc1,inactive: -8.3%,
CC1=C(O)C(=O)[C@H]2O[C@@H]2C1=O,,"inconclusive: 22.3 µM [inhibitor, partial curve]"
C=CCn1c(C)cc(C(=O)COC(=O)C2CC(=O)N(Cc3ccccc3)C2)c1C (stereo not given),inactive: -3.02%,
CC(C)c1cc2c(c(O)c1O)[C@@]13CCCC(C)(C)C1CC2OC3=O (stereo not given in full),,active: 5.01 µM
NS(=O)(=O)c1ccc(N=Nc2c(O)c(C(=O)O)cc3ccccc23)cc1,,"inconclusive: 15.8 µM [inhibitor, partial curve]"
O=C(OC[C@@H]1O[C@@](O)(COC(=O)c2cccnc2)[C@H](OC(=O)c2cccnc2)[C@H]1OC(=O)c1cccnc1)c1cccnc1,inactive: 4.86%,
COC(=O)NC(/C(C(=O)OC)=C(\C)NCc1ccccc1)c1ccc2ccccc2c1 (stereo not given),,"inconclusive: 3.15 µM [inhibitor, partial curve]"
O=c1c(O)c(-c2ccc(O)c(O)c2)oc2c(O)c(O)cc(O)c12,,active: 7.06 µM
COC(=O)CCCC1=CC2=CC(=O)C(C)(OC(=O)c3cccs3)C(=O)C2=CN1c1ccc(OC)cc1 (stereo not given),,"inconclusive: 706 nM [inhibitor, full curve] and inconclusive: 446 nM [inhibitor, full curve]"

SMILES,"activity, negative = inhibition",Potency
CCCCCCCCCCOCCC(=O)O,inactive: 2.27%,
Clc1ccc(CNC2CCN(Cc3ccccc3)CC2)cc1,,"inconclusive: 11.2 µM [inhibitor, partial curve]"
Cc1cc(OCc2ccccc2)ccc1/C(O)=C1/C(=O)C(=O)N(Cc2cccnc2)C1c1ccncc1 (stereo not given),,"inconclusive: 19.9 µM [activator, partial curve]"
O=C1CC(=O)c2c1cccc2[N+](=O)[O-],,"inconclusive: 19.9 µM [inhibitor, partial curve]"
O=C(CN1CCOCC1)Nc1nc2ccc(Cl)cc2s1,,active: 6.31 µM
CC(C)n1nnnc1SCC(=O)Nc1ccccc1F,inactive: 4.05%,
CCOC(=O)c1c(NC(=O)CSc2nncs2)sc(C)c1-c1ccccc1,inactive: 3.25%,
CCOc1ccc(NC(=O)Cn2sc3nc(C)cc(C)c3c2=O)cc1,inactive: -6.19%,
O=C(Cn1c2c(c(-c3ccccc3Cl)cc1=O)CCC2)N1CCC2(CC1)OCCO2,,"inconclusive: 3.97 µM [inhibitor, partial curve]"
COc1ccc(CC(=O)OCC(=O)Nc2ccc(Cl)c(S(=O)(=O)N(C)C)c2)cc1,inactive: -3.11%,
COc1ccc(CN2CCN(C(=O)c3ccco3)CC2)cc1OCc1ccccc1,inactive: -9.82%,
COc1ccc(C/C(C)=N/NC(=S)Nc2ccc(Cl)cc2)cc1,,"inconclusive: 15.8 µM [inhibitor, partial curve]"
O=C(O)c1cc2c([nH]c1=O)CCCC2,inactive: 7.13%,
CCC(C)(C)NC(=S)Nc1ccc(-c2nc3ccc(C)cc3s2)cc1,inactive: 3.4%,
Cc1cc(C)c2nc(NNC(=O)c3ccc(S(=O)(=O)N4CCc5ccccc5C4)cc3)sc2c1,,"inconclusive: 15.8 µM [inhibitor, single point]"
O=C1S/C(=C\c2ccc(N3CCOCC3)o2)C(=O)N1Cc1c(F)cccc1Cl,,"inconclusive: 12.6 µM [inhibitor, partial curve]"
NCCSC1CC(=O)N(Cc2ccc(F)cc2)C1=O (stereo not given),inactive: 2.46%,
CCOc1cc2c(C#N)c(N3CCNCC3)nc(N)c2c(N)n1,,"inconclusive: 0.354 µM [inhibitor, full curve]"
C=CCS(=O)(=O)c1cccc2cccnc12,,"inconclusive: 15.8 µM [inhibitor, partial curve]"
COc1ccc(NC(=O)[C@@H](NC(=O)c2ccccc2F)C(C)C)cc1S(=O)(=O)N1CCOCC1,inactive: -2.9%,
CCC1SC(=Nc2cccc(C)c2)NC1=O (stereo not given),inactive: 4.2%,
O=[N+]([O-])c1ccccc1CNCCc1c[nH]c2ccccc12,,"inconclusive: 35.5 µM [inhibitor, partial curve]"
COc1cccc(NC(=O)C2Cc3ccccc3CN2C(=O)c2ccco2)c1 (stereo not given),inactive: -3.95%,
CC(C)(C)N1C(=O)[C@H]2[C@@H](c3ccc(Br)cc3)N3C(=O)N(c4ccc(Br)cc4)C(=O)[C@@]3(Cc3ccccc3)[C@H]2C1=O,inactive: -9.38%,
Cc1cc(C)n(-c2ncc3c(n2)N(CCO)CCOC3=O)n1,,"inconclusive: 12.6 µM [inhibitor, partial curve]"
